# Data from publication PMC4336329 (PLoS ONE, 2015).
# Among all 310,000 compounds or so, about 14,000 (4.5%) showed an effect of 50% or more. Effects have a minus sign here. This is one part of the list.
# Molecular target: human ether-à-go-go-related gene (hERG) potassium channel (human, UniProt Q12809)
# Assay: primary screen, population patch clamp on CHO cells stably expressing hERG
# 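Note: peak tail current of the secondary pulse compared with the same well before compound.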
# Sequence of human ether-à-go-go-related gene (hERG) potassium channel (Q12809 whole entry, looked up): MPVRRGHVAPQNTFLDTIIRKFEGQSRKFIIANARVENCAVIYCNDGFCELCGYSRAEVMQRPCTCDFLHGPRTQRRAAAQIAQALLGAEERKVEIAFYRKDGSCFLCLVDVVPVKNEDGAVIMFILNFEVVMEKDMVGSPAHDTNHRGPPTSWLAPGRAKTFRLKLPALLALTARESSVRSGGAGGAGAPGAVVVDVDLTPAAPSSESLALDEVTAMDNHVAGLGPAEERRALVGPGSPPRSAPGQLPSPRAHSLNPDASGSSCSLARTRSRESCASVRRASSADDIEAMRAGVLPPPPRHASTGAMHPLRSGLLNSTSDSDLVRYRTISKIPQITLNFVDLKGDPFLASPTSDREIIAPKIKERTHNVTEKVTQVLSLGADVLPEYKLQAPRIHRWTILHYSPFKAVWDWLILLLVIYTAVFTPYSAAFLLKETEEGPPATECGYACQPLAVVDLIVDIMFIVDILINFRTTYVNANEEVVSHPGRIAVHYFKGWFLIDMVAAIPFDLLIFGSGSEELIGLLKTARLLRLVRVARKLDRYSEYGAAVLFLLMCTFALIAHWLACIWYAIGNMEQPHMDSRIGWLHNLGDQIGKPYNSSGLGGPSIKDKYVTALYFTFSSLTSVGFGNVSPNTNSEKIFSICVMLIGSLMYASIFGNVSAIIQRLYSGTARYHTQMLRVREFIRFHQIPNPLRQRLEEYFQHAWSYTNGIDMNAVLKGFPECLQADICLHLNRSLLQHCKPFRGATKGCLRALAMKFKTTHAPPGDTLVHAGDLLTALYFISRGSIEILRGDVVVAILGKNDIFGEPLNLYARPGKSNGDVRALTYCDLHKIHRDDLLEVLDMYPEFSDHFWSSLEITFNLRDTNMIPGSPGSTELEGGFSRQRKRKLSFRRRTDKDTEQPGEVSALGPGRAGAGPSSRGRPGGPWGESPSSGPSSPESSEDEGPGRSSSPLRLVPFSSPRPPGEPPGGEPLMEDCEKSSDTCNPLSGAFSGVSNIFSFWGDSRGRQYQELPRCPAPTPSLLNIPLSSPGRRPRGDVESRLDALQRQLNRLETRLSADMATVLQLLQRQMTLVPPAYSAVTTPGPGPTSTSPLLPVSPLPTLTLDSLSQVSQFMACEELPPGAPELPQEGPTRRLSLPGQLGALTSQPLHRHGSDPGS
row,Compound,"hERG current change (%, negative = inhibition) at 10uM"
1,O=C(CSc1nnc(NC(=O)c2cccc(Cl)c2)s1)NCC1CCCO1 (centres unmarked),20%
2,O=C(Nc1ccccc1)N1CCc2ccccc21,-21.2%
3,COCCNC(=O)c1onc(CSc2ccc(Cl)cc2)c1C(=O)O,2.74%
4,CC(C)Cn1c(=O)c(CCC(=O)Nc2ccc(N3CCOCC3)cc2)nc2cc(Cl)ccc21,7.84%
5,O=C(Cc1c(F)cccc1Cl)Nc1cccnc1,8.94%
6,Cc1cc(C)n(C(=O)c2ccc(NC(=O)C3CC3)cc2)n1,7.72%
7,CC(=O)Nc1nonc1-n1nnc(C(=O)NCc2ccccc2)c1C,-10.5%
8,COc1ccc(CCNC(=O)Cn2c(=O)n(CCCC(=O)NCc3ccco3)c(=O)c3sccc32)cc1OC,3.98%
9,CC(=O)Nc1ccc(S(=O)(=O)N(c2cccnc2)S(=O)(=O)c2ccc(NC(C)=O)cc2)cc1,-3.89%
10,O=C(C1=C(O)C(=O)N(CCN2CCOCC2)C1c1ccc([N+](=O)[O-])cc1)c1cc2ccccc2o1 (centres unmarked),15.6%
11,Cc1ccc2[nH]c(=O)c(-c3noc(CC(C)C)n3)cc2c1,-21.4%
12,Nc1c(C(=O)Nn2cnnc2)cc([N+](=O)[O-])cc1[N+](=O)[O-],-2.74%
13,CCCC(=O)N(c1ccccc1)C1C=CS(=O)(=O)C1 (centres unmarked),-3.97%
14,Oc1ccc(/C=N/N2CCCCC2)c(O)c1,11%
15,O=C(/C=C/c1ccccc1)NC(NC(=S)Nc1cccc(Cl)c1)C(Cl)(Cl)Cl (centres unmarked),3.21%
16,CC(=O)NNC(=O)CN1C(=O)/C(=C/c2ccccc2)SC1=S,18.9%
17,CCOC(=O)c1oc2ccc(Br)cc2c1COC(=O)C1=COCCO1,1.47%
18,CCCN(CCC)C(=O)c1ccc2c(=O)n(Cc3ccco3)c(=S)[nH]c2c1,3.17%
19,NS(=O)(=O)c1ccc(NC(=S)NC(=O)c2cccs2)cc1,22.3%

row,Compound,"hERG current change (%, negative = inhibition) at 10uM"
1,COc1ccc(/C=N/NC(=O)c2ccc(COc3ccccc3Cl)o2)c(OC)c1C,7.84%
2,Cc1ccc(NC(=O)c2ccn(C)n2)c(Br)c1,0.15%
3,CCCCn1c(=O)[nH]c2c(oc3ccccc32)c1=O,14.2%
4,Cc1ccc(-c2cc(=O)[nH][nH]2)c(C)c1,-2.12%
5,COC(=O)c1ccc(CSc2nc3ccc(Cl)cc3[nH]2)o1,-17.2%
6,CSc1nnc(C)c(/C=C/Nc2ccc(Cl)cc2)n1,8.3%
7,CCN(CCCNC(=O)C1CCN(S(=O)(=O)c2cnc[nH]2)CC1)c1cccc(C)c1,-1.03%
8,O=C(NCCc1ccccc1)C(=O)NCCC1CCCCN1S(=O)(=O)c1cccs1 (centres unmarked),-29.5%
9,Cc1cc(C)c(OCC(=O)Nc2ccc(N3CCOCC3)cc2)c(Br)c1,9.1%
10,CC(C)c1csc(CN2CCCC(CNC(=O)c3cccc4ccccc34)C2)n1 (centres unmarked),-8.32%
11,O=C(N/N=C/c1cccnc1)c1cccs1,11%
12,CCCCCC(=O)Nc1nc(C)c(-c2csc(Nc3ccccc3OC)n2)s1,16.6%
13,CC(C)CCN1C(Nc2ccccc2)=NC[C@@H]1CC(C)C,-33.4%
14,CC(C)(C)OC(=O)N1CCC[C@H]1c1nnc(SCc2ccc(Cl)cc2Cl)o1,4.07%
15,C=CCn1c(SCC(=O)Nc2c(C)n(C)n(-c3ccccc3)c2=O)nc2scc(-c3ccccc3)c2c1=O,-56%
16,Cc1cc(Sc2nc(N(C)C)nc(N(C)C)n2)nc(Cl)n1,-5.97%
17,COc1ccc(C(=O)NC2CCCc3ccccc32)c(OC)c1OC (centres unmarked),-45.7%
18,COc1ccc(/C=C2/CC/C(=C\c3ccc(OC)c(OC)c3OC)C2=O)c(OC)c1OC,-7.85%
19,CCOc1ccccc1-n1c(SCC(=O)N2CCOCC2)nc2ccccc2c1=O,-3.73%

row,Compound,"hERG current change (%, negative = inhibition) at 10uM"
1,Cc1ccc2nc(-c3ccncc3)cc(C(=O)NCCc3ccc(F)cc3)c2c1,10.5%
2,NC(=O)COC(=O)c1ccccc1SCC(=O)NC1CCCCCC1,23.9%
3,CCN(C(=O)Oc1ccccc1)c1ccc(C(O)(C(=O)OC)C(F)(F)F)cc1 (centres unmarked),-2.44%
4,COc1ccc(CN2CCCC(C(=O)N(C)Cc3ccccc3)C2)cc1OC.O=C(O)C(=O)O (centres unmarked),-71.1%
5,COc1cccc(CC2(CO)CCCN(Cc3ccccc3Cl)C2)c1 (centres unmarked),-31.2%
6,Cc1ccsc1/C=N/n1c(C2CCCCC2)n[nH]c1=S,8.95%
7,COc1cccc(C(=O)NNC(=O)C2CCCO2)c1 (centres unmarked),15.3%
8,Cc1cc(C)c(NC(=O)Cn2cnc3c(oc4ccccc43)c2=O)c(C)c1,25.7%
9,CCOc1ccc(N2C(=O)CC(Sc3nc(O)c(CC)c(=O)[nH]3)C2=O)cc1 (centres unmarked),13.1%
10,NC(N)=Nc1nc2ccc([N+](=O)[O-])cc2[nH]1,13%
11,O=C(COC(=O)c1ccc2ccccc2c1)Nc1ncc(C(F)(F)F)cc1Cl,-31.3%
12,Cc1ccc(C(=O)N/C(=C/c2ccco2)C(=O)N2CCCCCC2)cc1,26.6%
13,Cc1ccc(CNC(=O)CNS(=O)(=O)c2ccc3nc(C)sc3c2)cc1,-64.6%
14,Nc1c(N=O)c(=O)[nH]c(=O)n1-c1ccccc1,10.2%
15,Cc1ccccc1NC(=O)Oc1cccc(OC(=O)c2ccccc2)c1,7.06%
16,Cc1ccccc1NC(=O)CC1c2ccccc2CC(C)(C)N1C (centres unmarked),4.03%
17,Cc1ccc(S(=O)(=O)N(C)c2c(C)ccc(S(=O)(=O)NC(C)(C)C)c2C)cc1,9.67%
18,CCOC(=O)c1nnn(-c2nonc2N)c1CN1CCc2ccccc2C1,-10.2%
